# Hit rate of the full screen: of about 48,000 compounds, about 550 (1.1%) were called active. Roughly 4% stayed inconclusive and do not appear here. Cut-off read from the data, not from the text of the source: active = potency below about 15 µM; inconclusive = mostly about 16 µM to 33 µM; inactive = weaker than that. The list shows a part of the results.
# Target: Lysosomal acid glucosylceramidase (Homo sapiens) (UniProt P04062)
# Experiment: Glucocerebrosidase;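 note: the screen sought inhibitors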
# Conditions: purified enzyme, resorufin glucoside fluorescence (screen aimed at inhibitors), 20 min
# In short: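 Compounds titrated against 0.2 nM normal enzyme, 30 uM resorufin beta-D-glucopyranoside substrate, citrate/phosphate buffer with taurocholate and tween-20, pH 5.9. Reaction ran 20 min at room temperature; fluorescence (Ex 548/Em 600) gave AC50.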
# Potency is the fitted concentration of half-maximal effect.
# Chain of UniProt P04062 (P04062 whole entry, looked up): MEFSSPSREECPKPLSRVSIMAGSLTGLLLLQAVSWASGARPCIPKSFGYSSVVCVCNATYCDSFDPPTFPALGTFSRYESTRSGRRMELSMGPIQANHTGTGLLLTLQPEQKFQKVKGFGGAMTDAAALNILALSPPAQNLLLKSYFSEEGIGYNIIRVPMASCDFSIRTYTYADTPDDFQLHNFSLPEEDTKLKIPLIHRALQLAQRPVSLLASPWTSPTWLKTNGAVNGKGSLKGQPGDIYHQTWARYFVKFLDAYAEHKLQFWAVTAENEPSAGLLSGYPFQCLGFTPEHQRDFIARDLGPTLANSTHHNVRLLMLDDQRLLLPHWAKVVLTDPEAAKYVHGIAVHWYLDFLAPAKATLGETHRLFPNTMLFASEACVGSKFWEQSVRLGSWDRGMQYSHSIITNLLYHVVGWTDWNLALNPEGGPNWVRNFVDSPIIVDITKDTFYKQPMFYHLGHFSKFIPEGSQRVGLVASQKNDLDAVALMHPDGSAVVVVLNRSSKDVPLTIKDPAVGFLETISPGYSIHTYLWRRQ
row,Compound,Potency
1,CCOC(=O)CSC1=C(C#N)C(c2ccccc2F)C(C(C)=O)=C(C)N1 (centres undefined),inactive
2,COCCn1c(Sc2ccc(C)cc2)nc2c1c(=O)[nH]c(=O)n2C,inactive: > 76.9 µM
3,COC(=O)c1c(NC(=O)C2CC=CCC2C(=O)O)sc(C(N)=O)c1C (centres undefined),inactive: > 76.9 µM
4,CCOC(=O)CC(=O)Nc1nnc(CC(C)C)s1,inactive: > 76.9 µM
5,Nn1c(COc2cccc(Br)c2)nnc1SCC(=O)N1CCc2ccccc2C1,inactive: > 76.9 µM
6,CSCC[C@H](NC(=O)NCc1ccccc1F)C(=O)O,inactive: > 76.9 µM
7,O=C(CSc1nnc(CNC(=O)c2cccs2)o1)c1ccc(Cl)cc1,inactive: > 76.9 µM
8,COc1ccc(C)cc1NC(=O)C1CC(=O)OC12CCCCC2 (centres undefined),inactive: > 76.9 µM
9,CCOC(=O)C1=C(c2ccccc2)NC(SCC(=O)Nc2ccc(C)cc2)=C(C#N)C1c1ccco1 (centres undefined),active: 11.9 µM
10,CCOC(=O)c1cccc(NC(=O)CSc2nnc(-c3ccncc3)n2CCCOC)c1,inactive: > 76.9 µM
11,CCn1c(SCC(=O)Nc2ccc3c(c2)OCO3)nc2c1c(=O)n(C)c(=O)n2C,inactive: > 76.9 µM
12,CC(=O)Nc1nc(CC(C)C)cc(-c2ccco2)c1C#N,inactive: > 76.9 µM
13,Cc1ccc2cc3c(NC(=O)CC(C)C)nn(C)c3nc2c1,inactive: > 76.9 µM
14,CCC(=O)N1CCN(c2ccc(Cl)cc2NC(=O)Cc2ccccc2)CC1,inactive: > 76.9 µM
15,O=C1OCCC1Sc1ncnc2sc3c(c12)CCC3 (centres undefined),inactive: > 76.9 µM
16,CCN(CC)S(=O)(=O)c1ccc2[nH]cc(C(=O)NCCN3CCCCC3C)c(=O)c2c1 (centres undefined),inactive: > 76.9 µM
17,Cc1nc2ccc(S(=O)(=O)NCC(=O)NCCN3CCCCCC3)cc2s1,inactive: > 76.9 µM
18,COc1ccc(Cc2nnc(SCC(=O)c3ccccc3)o2)cc1,inactive: > 76.9 µM
19,CCCCSc1nn[nH]n1,inactive: > 76.9 µM
20,COc1ccccc1-n1c(C)nnc1SCC(N)=O,inactive: > 76.9 µM

row,Compound,Potency
1,Cc1cc(C)cc(CSc2nnc(C)c(=O)[nH]2)c1,inactive: > 76.9 µM
2,CCS(=O)(=O)N1CCC(C(=O)NCc2cccc(OC)c2)CC1,inactive: > 76.9 µM
3,CC1CCCN(C(=O)Cn2nnc(-c3cccnc3)n2)C1 (centres undefined),inactive: > 76.9 µM
4,CCOC(=O)c1ccccc1NS(=O)(=O)c1ccccc1,inactive: > 76.9 µM
5,COC(=O)Cc1c(C)nc2nc(-c3ccco3)[nH]n2c1=O,inactive: > 76.9 µM
6,O=C(CCN1c2ccccc2Sc2ccccc21)OCc1nnc(-c2ccccc2)o1,inactive: > 76.9 µM
7,COc1cccc(C(=O)NC2(C(F)(F)F)N=C3SCCN3C2=O)c1 (centres undefined),inactive: > 76.9 µM
8,CCCn1c(N2CCN(CC(=O)Nc3ccc4c(c3)OCCO4)CC2)nc2ccccc21,inactive: > 76.9 µM
9,CC(NC(=O)OCc1ccccc1)C(=O)NCC1CCCO1 (centres undefined),inactive: > 76.9 µM
10,COc1ccc(-c2nnn(CC(=O)c3ccccc3)n2)cc1OC,inactive: > 76.9 µM
11,COc1ccc(C(c2nnnn2CCc2ccccc2)N2CCN(C3CCCC3)CC2)cc1 (centres undefined),inactive
12,COc1ccc(CCNC(=O)C2CCN(S(C)(=O)=O)CC2)cc1OC,inactive: > 76.9 µM
13,Cc1cc(C)n(-c2ccc(Cl)c(C(=O)OCC(=O)N3CCCCC3C)n2)n1 (centres undefined),inactive: > 76.9 µM
14,COC(=O)c1[nH]c2ccccc2c1NS(=O)(=O)c1ccc(OC)cc1OC,inactive: > 76.9 µM
15,COc1ccc(N2CCN(C(=O)CN3C(=O)C4CC=CCC4C3=O)CC2)cc1 (centres undefined),inactive: > 76.9 µM
16,Oc1ccc(Nc2nc(N3CCCC3)c3ccccc3n2)cc1,active: 8.85 µM
17,Cc1noc(C)c1COC(=O)c1ccc2ccccc2n1,inactive: > 76.9 µM
18,CC(=O)C1C(c2ccccc2OC(F)F)NC(=O)NC1(O)C(F)(F)F (centres undefined),inactive: > 76.9 µM
19,N/C(=N\O)c1ccc(NC(=O)c2cccs2)cc1,inactive
20,CN1C(=O)N(C)C2C1N(C)S(=O)(=O)N2C (centres undefined),inactive: > 76.9 µM

row,Compound,Potency
1,Cc1ccc(C(O)c2cccnc2)o1 (centres undefined),inactive: > 76.9 µM
2,O=c1cc(O)c2c(=O)[nH]c(=O)n(-c3ccccc3)c2[nH]1,inactive: > 76.9 µM
3,CS(=O)(=O)N(CC(=O)N1CCOCC1)c1ccc2c(c1)OCO2,inactive: > 76.9 µM
4,c1ccc(Cn2ncc3c(NCc4ccco4)ncnc32)cc1,inactive: > 76.9 µM
5,COc1ccccc1-n1cnc2cc(NC(C)=O)ccc21,inactive: > 76.9 µM
6,COc1ccc(C)cc1S(=O)(=O)N(CC(=O)O)c1ccc(C)cc1,inactive: > 76.9 µM
7,O=C(NC1CC1)c1ccc(S(=O)(=O)NC2CCCCCC2)cc1,inactive: > 76.9 µM
8,N=c1sccn1CC(=O)Nc1ccc(S(=O)(=O)N2CCOCC2)cc1,inactive: > 76.9 µM
9,COc1cccc(N(C(=O)c2ccn[nH]2)C2(C(=O)Nc3c(C)cccc3C)CCCCC2)c1,inactive: > 76.9 µM
10,COc1ccc(C(C)(C)C)cc1NC(=O)COC(=O)c1cnc(C)cn1,inactive: > 76.9 µM
11,Cc1ccc(C(=O)Nc2nc3ccc(S(C)(=O)=O)cc3s2)s1,inactive: > 76.9 µM
12,CCOC(=O)c1cc2sc(C)cc2n1CC(=O)Nc1ccc2c(c1)OCCO2,inactive: > 76.9 µM
13,Cc1ccc(Cl)cc1N1CCN(CC(=O)Nc2ccc3[nH]c(=O)[nH]c3c2)CC1,inactive: > 76.9 µM
14,CC(O)CNc1nc2ccccc2n1-c1ncnc2sc3c(c12)CCC3 (centres undefined),inactive
15,CC(C)c1nnc(NC(=O)C2CCCN2S(=O)(=O)c2ccc(Cl)cc2)s1 (centres undefined),inactive: > 76.9 µM
16,COc1ccc2c(c1)c(=O)oc1c(C)c3occ(C)c3cc12,inactive: > 76.9 µM
17,COC(=O)[C@H](C)NC(=O)NCc1ccc(F)cc1,inactive: > 76.9 µM
18,O=C(Nc1nc2c(s1)CCCC2)C1CCCN1C(=O)c1cccs1 (centres undefined),inactive: > 76.9 µM
19,COCCNC(=O)c1c(N)n(CCCn2ccnc2)c2nc3ccccc3nc12,inactive: > 76.9 µM

# — PubChem BioAssay AID360 (National Center for Advancing Translational Sciences (NCATS), 2006)
